From the supplement of paper PMC4996465

What was measured:
KB3-1 = test: viability (% of DMSO control); higher = more viable cells
Experimental: (§1)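 Eleven-dose screen of the NCATS MIPE 3 library on cells without co-treatment; CellTiter-Glo after 48 h, as % of DMSO wells.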

Nalm-6 = test: as above
Experimental: as §1

How did the viability (KB3-1; 0.00078 µM) turn out when `Oc1nc(-c2ccc(C(F)(F)F)cc2)nc2c1CSCC2` [NVP-XAV-939] was run?
The viability was 93.7%.

What about the viability (KB3-1; 0.00234 µM) of the same compound?
The viability was 97%.

And the viability (KB3-1; 0.00702 µM)?
Its viability is 95.3%.

And the viability (KB3-1; 0.0211 µM)?
Its viability is 92.2%.

And the viability (KB3-1; 0.0632 µM)?
Its viability is 98.9%.

And the viability (KB3-1; 0.19 µM)?
Its viability is 100%.

And the viability (KB3-1; 0.569 µM)?
Its viability is 93.5%.

And the viability (KB3-1; 1.71 µM)?
The viability was 93.5%.

And the viability (KB3-1; 5.12 µM)?
Its viability is 97.8%.

And the viability (KB3-1; 15.4 µM)?
The viability was 96.1%.

And the viability (KB3-1; 46.1 µM)?
Its viability is 86.9%.

What about the viability (Nalm-6; run: 1, 0.00078 µM) of the same compound?
Its viability is 92.9%.

What about the viability (Nalm-6; run: 1, 0.00234 µM) of the same compound?
The viability was 96.4%.

What about the viability (Nalm-6; run: 1, 0.00702 µM) of the same compound?
Its viability is 95.4%.

And the viability (Nalm-6; run: 1, 0.0211 µM)?
Its viability is 92.8%.

What about the viability (Nalm-6; run: 1, 0.0632 µM) of the same compound?
Its viability is 105%.

What about the viability (Nalm-6; run: 1, 0.19 µM) of the same compound?
Its viability is 106%.

What about the viability (Nalm-6; run: 1, 0.569 µM) of the same compound?
Its viability is 102%.

And the viability (Nalm-6; run: 1, 1.71 µM)?
Its viability is 108%.

And the viability (Nalm-6; run: 1, 5.12 µM)?
The viability was 93.9%.

What about the viability (Nalm-6; run: 1, 15.4 µM) of the same compound?
Its viability is 102%.

And the viability (Nalm-6; run: 1, 46.1 µM)?
Its viability is 83.8%.

What about the viability (Nalm-6; run: 2, 0.00078 µM) of the same compound?
The viability was 107%.

What about the viability (Nalm-6; run: 2, 0.00234 µM) of the same compound?
Its viability is 103%.

And the viability (Nalm-6; run: 2, 0.00702 µM)?
Its viability is 107%.

What about the viability (Nalm-6; run: 2, 0.0211 µM) of the same compound?
Its viability is 109%.

And the viability (Nalm-6; run: 2, 0.0632 µM)?
The viability was 98.7%.

What about the viability (Nalm-6; run: 2, 0.19 µM) of the same compound?
Its viability is 107%.

And the viability (Nalm-6; run: 2, 0.569 µM)?
Its viability is 99.7%.

What about the viability (Nalm-6; run: 2, 1.71 µM) of the same compound?
Its viability is 100%.

What about the viability (Nalm-6; run: 2, 5.12 µM) of the same compound?
The viability was 99.9%.

And the viability (Nalm-6; run: 2, 15.4 µM)?
Its viability is 109%.

And the viability (Nalm-6; run: 2, 46.1 µM)?
The viability was 85.8%.

`CN1C(=O)C(Cc2c[nH]c3ccccc23)NC1=S` (configuration not stated) [Necrostatin-1] was tested. Which viability (KB3-1; 0.00078 µM) did it give?
Its viability is 98.1%.

And the viability (KB3-1; 0.00234 µM)?
Its viability is 102%.

What about the viability (KB3-1; 0.00702 µM) of the same compound?
Its viability is 104%.

And the viability (KB3-1; 0.0211 µM)?
Its viability is 97.3%.

What about the viability (KB3-1; 0.0632 µM) of the same compound?
The viability was 101%.

And the viability (KB3-1; 0.19 µM)?
Its viability is 104%.

And the viability (KB3-1; 0.569 µM)?
Its viability is 101%.

And the viability (KB3-1; 1.71 µM)?
Its viability is 102%.

What about the viability (KB3-1; 5.12 µM) of the same compound?
The viability was 101%.

And the viability (KB3-1; 15.4 µM)?
Its viability is 100%.

And the viability (KB3-1; 46.1 µM)?
The viability was 101%.

What about the viability (Nalm-6; run: 1, 0.00078 µM) of the same compound?
Its viability is 109%.

And the viability (Nalm-6; run: 1, 0.00234 µM)?
The viability was 125%.

What about the viability (Nalm-6; run: 1, 0.00702 µM) of the same compound?
Its viability is 118%.

And the viability (Nalm-6; run: 1, 0.0211 µM)?
The viability was 109%.

What about the viability (Nalm-6; run: 1, 0.0632 µM) of the same compound?
The viability was 118%.

And the viability (Nalm-6; run: 1, 0.19 µM)?
The viability was 111%.

What about the viability (Nalm-6; run: 1, 0.569 µM) of the same compound?
The viability was 120%.

What about the viability (Nalm-6; run: 1, 1.71 µM) of the same compound?
The viability was 99.7%.

What about the viability (Nalm-6; run: 1, 5.12 µM) of the same compound?
The viability was 97.8%.

And the viability (Nalm-6; run: 1, 15.4 µM)?
The viability was 101%.

What about the viability (Nalm-6; run: 1, 46.1 µM) of the same compound?
The viability was 98.9%.

What about the viability (Nalm-6; run: 2, 0.00078 µM) of the same compound?
Its viability is 112%.

What about the viability (Nalm-6; run: 2, 0.00234 µM) of the same compound?
Its viability is 111%.

And the viability (Nalm-6; run: 2, 0.00702 µM)?
The viability was 109%.

And the viability (Nalm-6; run: 2, 0.0211 µM)?
The viability was 107%.

And the viability (Nalm-6; run: 2, 0.0632 µM)?
The viability was 106%.

What about the viability (Nalm-6; run: 2, 0.19 µM) of the same compound?
The viability was 110%.

What about the viability (Nalm-6; run: 2, 0.569 µM) of the same compound?
Its viability is 106%.

What about the viability (Nalm-6; run: 2, 1.71 µM) of the same compound?
The viability was 107%.

What about the viability (Nalm-6; run: 2, 5.12 µM) of the same compound?
Its viability is 104%.

And the viability (Nalm-6; run: 2, 15.4 µM)?
Its viability is 102%.

And the viability (Nalm-6; run: 2, 46.1 µM)?
Its viability is 97.1%.

How did the viability (KB3-1; 0.00078 µM) turn out when `C\C1=C(\C=C(C#N)/C(=O)N1)C2=C[N]3C=CN=C3C=C2` [Olprinone] was run?
The viability was 108%.

And the viability (KB3-1; 0.00234 µM)?
The viability was 108%.

What about the viability (KB3-1; 0.00702 µM) of the same compound?
Its viability is 105%.

And the viability (KB3-1; 0.0211 µM)?
Its viability is 109%.

What about the viability (KB3-1; 0.0632 µM) of the same compound?
Its viability is 103%.

What about the viability (KB3-1; 0.19 µM) of the same compound?
The viability was 107%.

And the viability (KB3-1; 0.569 µM)?
Its viability is 106%.

What about the viability (KB3-1; 1.71 µM) of the same compound?
Its viability is 109%.

And the viability (KB3-1; 5.12 µM)?
Its viability is 103%.

And the viability (KB3-1; 15.4 µM)?
The viability was 110%.

What about the viability (KB3-1; 46.1 µM) of the same compound?
The viability was 108%.

What about the viability (Nalm-6; run: 1, 0.00078 µM) of the same compound?
The viability was 111%.

What about the viability (Nalm-6; run: 1, 0.00234 µM) of the same compound?
Its viability is 129%.

What about the viability (Nalm-6; run: 1, 0.00702 µM) of the same compound?
The viability was 119%.

And the viability (Nalm-6; run: 1, 0.0211 µM)?
The viability was 121%.

And the viability (Nalm-6; run: 1, 0.0632 µM)?
Its viability is 113%.

What about the viability (Nalm-6; run: 1, 0.19 µM) of the same compound?
Its viability is 124%.

And the viability (Nalm-6; run: 1, 0.569 µM)?
Its viability is 119%.

And the viability (Nalm-6; run: 1, 1.71 µM)?
The viability was 120%.

And the viability (Nalm-6; run: 1, 5.12 µM)?
The viability was 126%.

What about the viability (Nalm-6; run: 1, 15.4 µM) of the same compound?
The viability was 123%.

And the viability (Nalm-6; run: 1, 46.1 µM)?
Its viability is 117%.

And the viability (Nalm-6; run: 2, 0.00078 µM)?
Its viability is 110%.

And the viability (Nalm-6; run: 2, 0.00234 µM)?
Its viability is 111%.

What about the viability (Nalm-6; run: 2, 0.00702 µM) of the same compound?
The viability was 112%.

What about the viability (Nalm-6; run: 2, 0.0211 µM) of the same compound?
Its viability is 105%.

What about the viability (Nalm-6; run: 2, 0.0632 µM) of the same compound?
Its viability is 108%.

What about the viability (Nalm-6; run: 2, 0.19 µM) of the same compound?
The viability was 109%.

What about the viability (Nalm-6; run: 2, 0.569 µM) of the same compound?
The viability was 109%.

And the viability (Nalm-6; run: 2, 1.71 µM)?
The viability was 108%.

And the viability (Nalm-6; run: 2, 5.12 µM)?
Its viability is 109%.

What about the viability (Nalm-6; run: 2, 15.4 µM) of the same compound?
The viability was 109%.

And the viability (Nalm-6; run: 2, 46.1 µM)?
Its viability is 100%.

Which viability (KB3-1; 0.00078 µM) does the source give for `COc1ccc2[nH]c([S+]([O-])Cc3ncc(C)c(OC)c3C)nc2c1` (configuration not stated) [Omeprazole] here?
Its viability is 103%.

And the viability (KB3-1; 0.00234 µM)?
The viability was 96.7%.

What about the viability (KB3-1; 0.00702 µM) of the same compound?
Its viability is 105%.

What about the viability (KB3-1; 0.0211 µM) of the same compound?
Its viability is 105%.

What about the viability (KB3-1; 0.0632 µM) of the same compound?
The viability was 107%.

What about the viability (KB3-1; 0.19 µM) of the same compound?
Its viability is 96.9%.

What about the viability (KB3-1; 0.569 µM) of the same compound?
Its viability is 96.4%.

And the viability (KB3-1; 1.71 µM)?
Its viability is 98.9%.

What about the viability (KB3-1; 5.12 µM) of the same compound?
The viability was 96.3%.

What about the viability (KB3-1; 15.4 µM) of the same compound?
The viability was 98.3%.

And the viability (KB3-1; 46.1 µM)?
Its viability is 92.6%.

What about the viability (Nalm-6; run: 1, 0.00078 µM) of the same compound?
The viability was 104%.

What about the viability (Nalm-6; run: 1, 0.00234 µM) of the same compound?
Its viability is 105%.

What about the viability (Nalm-6; run: 1, 0.00702 µM) of the same compound?
The viability was 113%.

What about the viability (Nalm-6; run: 1, 0.0211 µM) of the same compound?
The viability was 111%.

And the viability (Nalm-6; run: 1, 0.0632 µM)?
The viability was 108%.

And the viability (Nalm-6; run: 1, 0.19 µM)?
Its viability is 104%.

What about the viability (Nalm-6; run: 1, 0.569 µM) of the same compound?
The viability was 96.7%.

And the viability (Nalm-6; run: 1, 1.71 µM)?
The viability was 93.7%.

What about the viability (Nalm-6; run: 1, 5.12 µM) of the same compound?
The viability was 97.3%.

And the viability (Nalm-6; run: 1, 15.4 µM)?
Its viability is 92.5%.

What about the viability (Nalm-6; run: 1, 46.1 µM) of the same compound?
The viability was 87.8%.

And the viability (Nalm-6; run: 2, 0.00078 µM)?
The viability was 103%.

And the viability (Nalm-6; run: 2, 0.00234 µM)?
Its viability is 98.9%.

And the viability (Nalm-6; run: 2, 0.00702 µM)?
The viability was 105%.

What about the viability (Nalm-6; run: 2, 0.0211 µM) of the same compound?
The viability was 98.8%.

What about the viability (Nalm-6; run: 2, 0.0632 µM) of the same compound?
The viability was 98%.

What about the viability (Nalm-6; run: 2, 0.19 µM) of the same compound?
Its viability is 100%.

And the viability (Nalm-6; run: 2, 0.569 µM)?
Its viability is 96.8%.

And the viability (Nalm-6; run: 2, 1.71 µM)?
The viability was 86.9%.

What about the viability (Nalm-6; run: 2, 5.12 µM) of the same compound?
Its viability is 93.1%.

What about the viability (Nalm-6; run: 2, 15.4 µM) of the same compound?
The viability was 96.4%.

What about the viability (Nalm-6; run: 2, 46.1 µM) of the same compound?
Its viability is 85%.

Viability of KB3-1 and Nalm-6 cells after 48 h of drug alone (CellTiter-Glo), 11 doses over about 4.5 log units. % of DMSO wells, lower = more cell loss; AC50 from the fitted curve, lower = more potent. No active / inactive call. Nalm-6 was screened in two runs. AC50 is listed only for well-fitted inhibitory curves. KB3-1 is a HeLa-derived carcinoma line, Nalm-6 a B-cell precursor leukaemia line.
